In all, about 310,000 compounds went through this assay and about 2,200 (0.71%) showed an effect of 50% or more. The effect is printed as a negative number. This is one part of the list.

In this assay the target is human ether-à-go-go-related gene (hERG) potassium channel (human, UniProt Q12809). In words: primary screen, population patch clamp on CHO cells stably expressing hERG.
Sequence of human ether-à-go-go-related gene (hERG) potassium channel (Q12809 whole entry, looked up): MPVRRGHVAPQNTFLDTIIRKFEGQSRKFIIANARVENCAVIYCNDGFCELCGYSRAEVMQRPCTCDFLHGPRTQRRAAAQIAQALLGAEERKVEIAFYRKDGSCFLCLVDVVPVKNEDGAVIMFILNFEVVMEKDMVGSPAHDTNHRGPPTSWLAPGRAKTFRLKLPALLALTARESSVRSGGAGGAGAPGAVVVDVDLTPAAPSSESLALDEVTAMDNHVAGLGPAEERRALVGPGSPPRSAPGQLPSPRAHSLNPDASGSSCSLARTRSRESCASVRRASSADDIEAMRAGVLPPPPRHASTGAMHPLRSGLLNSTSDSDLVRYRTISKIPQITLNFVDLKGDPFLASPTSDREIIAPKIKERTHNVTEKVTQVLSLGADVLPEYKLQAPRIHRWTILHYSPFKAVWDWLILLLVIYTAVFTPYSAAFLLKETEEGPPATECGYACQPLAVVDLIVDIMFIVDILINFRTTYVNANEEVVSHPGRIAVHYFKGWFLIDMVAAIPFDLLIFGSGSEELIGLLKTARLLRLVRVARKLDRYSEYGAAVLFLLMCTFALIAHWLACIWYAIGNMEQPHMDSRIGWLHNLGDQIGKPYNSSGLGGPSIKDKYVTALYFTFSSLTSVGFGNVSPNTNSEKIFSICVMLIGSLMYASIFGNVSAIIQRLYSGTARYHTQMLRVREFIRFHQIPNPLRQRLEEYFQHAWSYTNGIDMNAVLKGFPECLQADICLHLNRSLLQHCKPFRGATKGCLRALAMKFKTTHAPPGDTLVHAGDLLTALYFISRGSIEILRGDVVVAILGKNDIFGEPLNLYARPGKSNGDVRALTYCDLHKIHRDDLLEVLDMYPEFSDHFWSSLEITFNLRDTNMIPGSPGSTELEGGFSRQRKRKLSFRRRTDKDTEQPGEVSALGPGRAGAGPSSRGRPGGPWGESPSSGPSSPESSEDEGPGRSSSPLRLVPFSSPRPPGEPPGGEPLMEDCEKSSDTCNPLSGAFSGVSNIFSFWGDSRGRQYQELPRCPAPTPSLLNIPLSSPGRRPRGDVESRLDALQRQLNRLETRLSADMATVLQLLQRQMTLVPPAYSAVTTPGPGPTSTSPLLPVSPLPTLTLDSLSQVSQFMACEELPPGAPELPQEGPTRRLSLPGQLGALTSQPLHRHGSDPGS
Consider `Cc1ccc(CNC(=O)CSc2nc(=O)n3ccccc3n2)cc1`, for which the “hERG current change (%, negative = inhibition) at 1uM” value was -8.24%.

Turning to `Cc1ccc(C(c2sc3nc(C)nn3c2O)N2CCN(CCO)CC2)cc1` (stereo not shown), the “hERG current change (%, negative = inhibition) at 1uM” value is listed as 3.61%.

On to `O=C(NC1CCCC1)C(c1cccnc1)N(Cc1ccccc1)C(=O)c1csnn1` (stereo not shown), for which the “hERG current change (%, negative = inhibition) at 1uM” value was 10.4%. As for `COc1ccc(N(CC(=O)Nc2ccc3c(c2)OCCO3)S(C)(=O)=O)c(OC)c1`, the figure is 0.263%; as for `FC(F)(F)c1cccc(Cc2noc(CN3CCSCC3)n2)c1`, 4.83%. Take `CCc1c(C(=O)NC2CCCCC2)[nH]c(C)c1C(C)=O`: the “hERG current change (%, negative = inhibition) at 1uM” value is reported as 20.4%. To `S=c1[nH]nc(-c2ccc(Br)cc2)n1Cc1ccco1` belongs 7.89%; to `CC(=O)OC(C(=O)NCc1ccco1)c1cccnc1` (stereo not shown), 8.94%. To `Cc1cccc(COCC(Cc2ccccc2)N2CCN(C(=O)c3cccc(Cl)c3)CCC2=O)c1` (stereo not shown) belongs 3.37%; to `O=C(O)c1cc([N+](=O)[O-])ccc1NCCO`, 0.572%. On to `CC(C)(C)n1nc2c(c1NC(=O)c1ccc(S(=O)(=O)N3CCCC3)cc1)CSC2`, for which the “hERG current change (%, negative = inhibition) at 1uM” value came to 6.29%. As to `FCCCOc1ccc(-c2ccnc(-c3ccccc3)n2)cc1`, the “hERG current change (%, negative = inhibition) at 1uM” value was determined as 9.67%. On to `Cc1ccc(NC(=O)CN(C)C(=O)CCOc2cccc(C)c2)cc1`, for which the “hERG current change (%, negative = inhibition) at 1uM” value was found to be 5.63%. For the molecule `CC1=NOC2(C)Nc3ncnn3C(c3ccccc3)C12` (stereo not shown), the “hERG current change (%, negative = inhibition) at 1uM” value is listed as -7.14%.

As for `COc1ccc(OC)c(S(=O)(=O)N2CCN(C34CC5CC(CC(C5)C3)C4)CC2)c1`, the “hERG current change (%, negative = inhibition) at 1uM” value was 6.12%. As for `COc1ccc(C2C(C#N)=C(N)Oc3n[nH]c(C)c32)cc1Cn1cc([N+](=O)[O-])cn1` (stereo not shown), the figure is 12.2%; as for `Cc1cc(NC(=O)Cn2nc(C(=O)O)c3ccccc3c2=O)c([N+](=O)[O-])cc1C`, 15.4%. As for `Cc1ccc(S(=O)(=O)NCC(=O)N(CC(=O)NCc2ccco2)Cc2ccco2)cc1`, the figure is -7.04%; as for `CCCc1cc(=O)n2[nH]c(-c3ccc(Br)cc3)cc2n1`, -6.05%; as for `COc1ccc(NC(=O)Cn2cc(C#N)c3ccccc32)cc1`, 11.7%. To `COc1cc(CN2CCCC(C(=O)Nc3cccc(-n4cccn4)c3)C2)ccc1F` (stereo not shown) belongs 3.45%; to `Cc1ccccc1-n1c(C)nc2ccsc2c1=O.Cl`, 17.1%. `S=C(NCc1ccccc1)N1CCN(Cc2ccc3c(c2)OCO3)CC1`: the “hERG current change (%, negative = inhibition) at 1uM” value is given as 8.62%.

`COc1nccnc1NS(=O)(=O)c1ccc(N=Cc2c(C)[nH]n(-c3ccccc3)c2=O)cc1`: the “hERG current change (%, negative = inhibition) at 1uM” value is listed as 14.6%.

In the case of `CC(=O)Nc1nc(C)c(S(N)(=O)=O)s1`, the “hERG current change (%, negative = inhibition) at 1uM” value is on record as -17.8%. As for `Cc1ccc(-c2nnc(NC3CCCCC3)c3ccccc23)cc1S(=O)(=O)N1CCN(C)CC1`, the figure is -0.52%; as for `Cc1cc(=O)[nH]c(N/N=C/c2cc(C)n(-c3ccccc3)c2C)n1`, 15.9%; as for `Cc1ccc(N(CC(=O)NCCSCc2ccco2)S(C)(=O)=O)cc1`, 6.78%. As for `CC1(C)CC(=O)C2=C(C1)N(c1cccc(Cl)c1)C(=O)NC2(C(F)(F)F)C(F)(F)F`, the figure is 4.31%.

Consider `COc1cc(CCCN2C(=O)C(=O)NC[C@@H]2CCCCN)cc(OC)c1OC`, for which the “hERG current change (%, negative = inhibition) at 1uM” value turned out to be 21.3%. As for `CCN(CC(=O)NCc1ccc(F)cc1)S(=O)(=O)c1ccc(C)cc1`, the figure is -13.7%; as for `CCn1c(CNS(=O)(=O)c2ccc(Cl)cc2)n[nH]c1=S`, 9.49%; as for `CCn1cc(S(=O)(=O)N2CCN(Cc3cccc(Cl)c3)CC2)cn1`, 9.11%.

With `O=C(OCc1ccc(-c2ccccc2)cc1)c1cccc(O)c1`, the “hERG current change (%, negative = inhibition) at 1uM” value is on record as 12.3%.

`O=C(NCCCN1CCOCC1)c1ccccc1N1C(=O)[C@@H]2Cc3c([nH]c4ccccc34)C(c3ccc(F)cc3)N2C1=O` (stereo partly shown): the “hERG current change (%, negative = inhibition) at 1uM” value is given as -23.1%. In the case of `O=c1oc(C2(O)CCCCC2)cc2ccc(Br)cc12`, the “hERG current change (%, negative = inhibition) at 1uM” value is reported as 19.6%.

Consider `O=C(COc1cccnc1[N+](=O)[O-])NCc1cccs1`, for which the “hERG current change (%, negative = inhibition) at 1uM” value is given as 8.45%. For the molecule `CC(C)NC(=O)c1cc(C(=O)c2cc(Cl)ccc2O)coc1=N`, the “hERG current change (%, negative = inhibition) at 1uM” value came to 2.84%.

As for `CC(C)CC(=O)Nc1nnc(S(=O)(=O)N(C)Cc2ccco2)s1`, the “hERG current change (%, negative = inhibition) at 1uM” value is listed as 21%.

As for `Cc1ccc(N(CC(=O)NCc2ccco2)C(=O)CNS(=O)(=O)c2ccccc2)c(C)c1`, the “hERG current change (%, negative = inhibition) at 1uM” value came to 10.3%. To `COc1ccc(C2=NOC(Cn3nc(C(=O)O)cc3-c3ccccc3)C2)cc1` (stereo not shown) belongs 4.01%; to `N#CC1=C(N)Oc2cc(O)c(C=Nc3ccccc3)cc2C1c1ccccc1` (stereo not shown), 8.55%. To `O=[N+]([O-])c1ccc(Sc2n[nH]c(-c3ccncc3)n2)nc1` belongs 13.8%; to `COc1ccc(C(=O)OCc2csc(C)n2)c(O)c1`, 14.1%; to `O=C(N/C(=C\c1ccccc1)C(=O)N1CCCCC1)c1ccc(Br)o1`, -0.538%. As for `CC1CCN(C(=O)C(NS(=O)(=O)c2cccc3nsnc23)C(C)C)CC1` (stereo not shown), the figure is 16.8%; as for `CCOC(=O)c1c(NC(C)=O)sc2c1CCN(Cc1ccccc1)C2.Cl`, 8.34%.

Regarding `CC(C)c1ccc(S(=O)(=O)N2CCN(C(=S)NCc3ccco3)CC2)cc1`, the “hERG current change (%, negative = inhibition) at 1uM” value was determined as 4.96%. To `CC(OC(=O)CCc1nc2ccccc2c(=O)[nH]1)C(=O)c1ccc(Br)cc1` (stereo not shown) belongs 5.24%. As for `Cc1ccccc1OCC(=O)Nc1cc(Cl)ccc1Oc1ccccc1`, the figure is -5.39%; as for `COC(=O)C1=C(c2c(C)noc2C)C[C@@H]2CC[C@H]1N2C(=O)NCC1CC1`, 15.6%; as for `CCOC(=O)c1c(C)n(Cc2ccc3c(c2)OCO3)c2ccc(O)cc12`, 9.67%.

For the molecule `Cc1cc(NC(=O)Cn2nnc3sc4c(c3c2=O)CCCC4)no1`, the “hERG current change (%, negative = inhibition) at 1uM” value is on record as 7.27%. To `COc1ccc(S(=O)(=O)N(CC(=O)NCCSc2ccccn2)c2ccccc2)cc1` belongs 9.8%; to `Br.CCCCCCCn1c(=N)n(CC(=O)c2ccco2)c2ccccc21`, -40%.

The record behind these values is PMC4336329 (PLoS ONE, 2015).
